Source: the BET-seq Pho4 binding data (Le et al. 2018)
The list shows a part of the results. Values were computed here from the reads of four pooled replicates and scatter widely.

target: T1, Pho4 (S. cerevisiae) (UniProt P07270); experiment: relative binding free energy (BET-seq); higher = weaker binding; settings: reference: library average
T1 sequence: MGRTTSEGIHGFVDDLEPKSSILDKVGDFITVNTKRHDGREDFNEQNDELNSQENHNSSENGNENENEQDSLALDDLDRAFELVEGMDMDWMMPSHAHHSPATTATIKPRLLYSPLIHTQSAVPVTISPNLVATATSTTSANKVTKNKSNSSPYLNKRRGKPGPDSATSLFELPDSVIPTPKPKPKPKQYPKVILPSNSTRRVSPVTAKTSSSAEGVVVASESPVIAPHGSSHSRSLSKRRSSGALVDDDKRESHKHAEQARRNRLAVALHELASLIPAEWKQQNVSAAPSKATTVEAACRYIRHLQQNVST

Row | Sequence | relative binding free energy [kcal/mol]
1 | GAGAGCACGTGAGGTG | 0.2
2 | GGATTCACGTGACGTG | 0.35
3 | GCGGCCACGTGGTTGG | -0.06
4 | AGCGGCACGTGTGGCA | 0.08
5 | GTGGCCACGTGATGTG | 0.11
6 | TCTGTCACGTGTCAGT | 0.1
7 | AGAATCACGTGTAGGA | 0.21
8 | TCTTGCACGTGTTAAG | 0.05
9 | TGCGTCACGTGCAAGT | 0.08
10 | TGTGTCACGTGCTGTA | 0.02
11 | CTGAGCACGTGATGTG | -0.12
12 | ATACTCACGTGTGAGG | 0.2
13 | AATGTCACGTGTATAT | 0.13
14 | ATGAGCACGTGGTACT | -0.14
15 | TCTTGCACGTGTTATT | 0.08
16 | TGGGTCACGTGTTCCG | 0.17
17 | AATATCACGTGAAGGG | 0.28
18 | TCTGACACGTGGGGAT | -0.01
19 | CTTGACACGTGTTAAT | 0.09
20 | GGGTGCACGTGCTCTT | 0.09
21 | ATATACACGTGGTGGA | -0.1

Row | Sequence | relative binding free energy [kcal/mol]
22 | TCGGGCACGTGATTTA | 0.07
23 | TGGAGCACGTGATAGG | -0.07
24 | CTGTACACGTGCGTGG | -0.05
25 | ATGGGCACGTGTGTCG | -0.09
26 | GTGATCACGTGGAAAG | 0.27
27 | AGGTCCACGTGTAAGT | 0.06
28 | GAGACCACGTGGGGTA | 0.04
29 | CAGGGCACGTGTATAG | -0.08
30 | AGTCGCACGTGTACGT | 0
31 | GTTAGCACGTGGGCAT | -0.16
32 | AGTATCACGTGGGCAT | 0.1
33 | TGTGTCACGTGGCCGA | -0.05
34 | ATTTTCACGTGGACTG | 0.12
35 | CGGCGCACGTGGGGTC | -0.23
36 | CATGTCACGTGGGTAG | -0.1
37 | TGCAGCACGTGTGTGT | -0.02
38 | GGGCTCACGTGTTTAG | 0.24
39 | GTATTCACGTGTCAGT | 0.38
40 | GAGGGCACGTGGGTGA | -0.15
41 | GTATGCACGTGGGTCT | -0.18
42 | GCATGCACGTGGTGGG | -0.13

Row | Sequence | relative binding free energy [kcal/mol]
43 | TTGTGCACGTGAGGGC | 0.1
44 | AATGGCACGTGGTCTG | -0.2
45 | GCGTCCACGTGTGTTG | 0.11
46 | TGTGTCACGTGGCAGT | -0.03
47 | AAGAACACGTGGGGGG | -0.14
48 | ATGATCACGTGGATAT | 0.15
49 | GAGGACACGTGTGGGA | 0.22
50 | TCCGACACGTGTGGGT | 0.17
51 | GGGGCCACGTGCGTGA | -0.14
52 | GTGTCCACGTGGGCTA | -0.02
53 | GGATTCACGTGAATAG | 0.41
54 | GTTGCCACGTGGAGTT | -0.05
55 | ATTGTCACGTGGTTTG | 0.05
56 | TTATGCACGTGGTTCT | -0.13
57 | ACGGTCACGTGGTGTA | -0.15
58 | ATACGCACGTGAGGTG | 0.19
59 | CAGGGCACGTGGCTTT | -0.08
60 | CGTTACACGTGTTTTA | 0.23
61 | AGTAACACGTGGTTGT | 0
62 | TTCTACACGTGAATGG | 0.39
63 | GTGGGCACGTGTAAAT | 0.05
